According to the supplement of paper PMC4166925:
± gives the standard deviation of the averaged measurements. Whole data set: some 33,000 sequences, median “E-score (dimensionless, -0.5 to 0.5)” near -0.049, cut for the highest 2% near 0.37. The list shows a part of the results.

System: T1, PmTbr T-box DNA-binding domain (GST fusion)
T1 sequence: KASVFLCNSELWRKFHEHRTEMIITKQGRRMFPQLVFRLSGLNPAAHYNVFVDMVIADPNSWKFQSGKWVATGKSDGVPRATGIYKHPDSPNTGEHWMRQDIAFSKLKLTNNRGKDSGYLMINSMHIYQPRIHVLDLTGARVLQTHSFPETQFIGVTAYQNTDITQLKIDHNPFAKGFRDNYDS
Experiment: PBM E-score of 8-mer (E-score (dimensionless, -0.5 to 0.5)); Tbr is Tbrain of the sea star Patiria miniata (Pm) or the sea urchin Strongylocentrotus purpuratus (Sp); higher = stronger binding preference; most listed sequences are background and not binding sites
Conditions: the construct has about 5 more residues each side
Outline: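 Universal Agilent oligonucleotide arrays, made double-stranded by primer extension, were incubated with 200 nM GST-fused Tbr T-box DNA-binding domain in PBS (pH 7.5). The protein was expressed in BL21 E. coli at 20 °C and purified by glutathione affinity chromatography. After scanning and quantification, the Universal PBM Analysis Suite assigned an enrichment E-score to each ungapped 8-mer, averaged over duplicate arrays.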

Sequence | PBM E-score of 8-mer
TAGGGGGA | -0.277 ± 0.092
AGTACACT | -0.131 ± 0.043
GTTCCGAA | -0.095 ± 0.058
TCAGCAGA | 0.0225 ± 0.013
CTATATTC | -0.133 ± 0.067
ACGAGGCT | -0.139 ± 0.012
CTAATGGA | -0.217 ± 0.086
CCCCGATC | -0.143 ± 0.034
GGGCATGA | -0.0934 ± 0.074
GTCCCTCA | -0.119 ± 0.031
CGGTCTCA | -0.00821 ± 0.039
GTCAAGCA | 0.0866 ± 0.074
AGTTAAAT | 0.0456 ± 0.055
ATTCAACC | -0.322 ± 0.052
TAAGTGGA | -0.141 ± 0.0053
AGTCGCTG | -0.0736 ± 0.038
ATCTCCAA | -0.0417 ± 0.024
CCGGAAGC | -0.135 ± 0.031
ACAGTAAG | -0.0467 ± 0.055
TAACTGCA | -0.191 ± 0.061
CTACAATA | -0.163 ± 0.18
CGCTCGTA | -0.182 ± 0.024
AAGTGAGA | 0.429 ± 0.0088
TAGCGGGA | 0.0951 ± 0.026
GCTACAAC | -0.0921 ± 0.011

Sequence | PBM E-score of 8-mer
ATTCTCTC | 0.116 ± 0.017
ATCATCAA | -0.142 ± 0.071
TCGATGAA | -0.145 ± 0.096
GAGACGAA | 0.0384 ± 0.0069
CGAGACCC | -0.0652 ± 0.0067
CGTGTTCC | -0.0107 ± 0.018
CTTCGTTC | -0.232 ± 0.01
GCGTCTCC | -0.135 ± 0.039
ATAATGAT | -0.0812 ± 0.017
GAAAAAAC | -0.089 ± 0.079
CTTTCTCA | 0.0644 ± 0.086
AGGTGCCA | 0.4761 ± 0.0036
CTTGATGC | -0.217 ± 0.026
AGATGGAG | -0.163 ± 0.016
CACCTGGC | 0.427 ± 0.007
GAGTAGGC | -0.211 ± 0.074
ATACCACA | 0.0618 ± 0.03
ATACGGTA | -0.105 ± 0.025
GCGGTAGC | 0.0133 ± 0.021
ACCCAACC | -0.112 ± 0.0036
TCGGCAGA | -0.133 ± 0.034
AAGAACTT | -0.0867 ± 0.021
CCAATCTC | -0.0504 ± 0.045
ACCTAACC | 0.11 ± 0.009
GTATCTTA | -0.15 ± 0.027

Sequence | PBM E-score of 8-mer
CCAAATAA | -0.259 ± 0.013
ATGGTATG | -0.138 ± 0.029
AAATCAAG | 0.137 ± 0.074
ACATGACA | 0.287 ± 0.0097
ACCGCTTC | 0.0527 ± 0.056
CCAGGTGA | 0.339 ± 0.023
AGGGGGAC | -0.247 ± 0.025
TCAAATAA | 0.0138 ± 0.054
ATTTCTCA | 0.0962 ± 0.15
ATGGGTTC | -0.264 ± 0.003
AGGGTATA | -0.0275 ± 0.05
ACTGTAGA | 0.0339 ± 0.022
CAGGTCGC | 0.184 ± 0.047
CGGGGTAC | 0.031 ± 0.066
CTCCTTTC | -0.102 ± 0.022
CAGCGTAC | -0.142 ± 0.083
AAGCTTTA | -0.201 ± 0.028
ACACTTCC | 0.428 ± 0.016
GACCCAAC | -0.126 ± 0.095
CCAAGGCA | -0.123 ± 0.056
ACCGTGTC | 0.1606 ± 0.0013
GGGTCGAC | -0.0711 ± 0.048
CTCCGGCA | 0.107 ± 0.12
AATGTCGC | 0.224 ± 0.023
GGTCGCAA | 0.205 ± 0.0044

Sequence | PBM E-score of 8-mer
GCGGGGGA | -0.0529 ± 0.066
ATCACTTG | 0.216 ± 0.045
CCATCACC | 0.245 ± 0.032
ATATAGGA | -0.275 ± 0.021
GCCTATCA | 0.144 ± 0.011
ATGTGATC | 0.0403 ± 0.026
CGTATAAA | -0.18 ± 0.015
CTACGCGC | 0.187 ± 0.022
GCGATTGA | 0.00864 ± 0.027
GCGGTGAC | 0.152 ± 0.057
TAAGGCCA | -0.193 ± 0.076
TCTGCGAA | 0.201 ± 0.038
ACAGTTCT | 0.16 ± 0.0018
CGAGCAAG | -0.162 ± 0.0036
ACGTGTCA | 0.4563 ± 0.0033
CCACAAGC | -0.0952 ± 0.047
CAACGCCG | 0.0783 ± 0.015
ACTCAGTA | -0.113 ± 0.082
GACTCAGC | -0.234 ± 0.068
CTACTCAA | -0.00664 ± 0.16
AAGGCACC | 0.126 ± 0.043
CCGTGTAA | 0.0629 ± 0.076
GCGGGGCA | -0.101 ± 0.012
CAGCTTTC | 0.12 ± 0.0031
AACAGAAG | -0.188 ± 0.009

Sequence | PBM E-score of 8-mer
GACGACCC | -0.0887 ± 0.012
GCATCTAC | -0.0368 ± 0.025
CTGCTCTC | -0.208 ± 0.057
CGCCGTAC | -0.179 ± 0.0076
ACTCCGAG | -0.0996 ± 0.049
GAGGGTAA | -0.192 ± 0.004
ACCTCGGG | 0.0398 ± 0.076
ACTCAATG | -0.108 ± 0.081
GTTTTATA | -0.196 ± 0.11
ACGATTCT | -0.106 ± 0.044
ACAAAACC | -0.058 ± 0.084
GACAGATC | 0.0314 ± 0.067
CATTTATC | -0.0581 ± 0.028
AACTCCCT | -0.271 ± 0.044
AAGCGGAG | -0.167 ± 0.00073
CTCCGTAA | -0.0659 ± 0.014
CGCGACAG | 0.308 ± 0.014
CGCACAGA | -0.108 ± 0.087
CCCATCTC | 0.0496 ± 0.033
TGAACTAA | -0.00296 ± 0.034
AATGTACC | -0.0569 ± 0.04
CCTACTCA | 0.0538 ± 0.0061
CGTTTCCC | 0.0672 ± 0.036
CTCGAGAG | -0.142 ± 0.038
GGATAACC | -0.0815 ± 0.037

Sequence | PBM E-score of 8-mer
AAGTTATC | 0.145 ± 0.054
GACCTGAC | -0.0852 ± 0.017
ACAGTGAA | 0.189 ± 0.0048
AGAGGGCG | -0.00487 ± 0.023
GTAGGAGA | -0.233 ± 0.049
AAAGACAG | -0.273 ± 0.036
CCCAGTAG | -0.0881 ± 0.041
GGCATAAA | -0.09299 ± 0.00013
GAGGCCCA | -0.282 ± 0.024
AGCCCCTA | -0.0994 ± 0.03
GAGATCGC | 0.203 ± 0.056
ACGGTGAG | 0.12 ± 0.014
CCATGGTA | -0.141 ± 0.089
CATCCTGA | 0.0899 ± 0.0052
CCCCCAAA | -0.323 ± 0.037
CCTCTGAG | 0.0864 ± 0.024
TACCGCAA | 0.0187 ± 0.013
ACACGTTG | 0.374 ± 0.0049
ACATCCCC | 0.118 ± 0.0023
AGAAACGA | -0.00754 ± 0.048
ATGCCCCG | -0.146 ± 0.048
CCTAAAGA | -0.0329 ± 0.051
AGTGGCTA | -0.118 ± 0.042
ACGAACAC | 0.142 ± 0.025
TGGAAACA | -0.0822 ± 0.044

Sequence | PBM E-score of 8-mer
GAGATTCA | -0.126 ± 0.041
GTAATCGA | -0.00964 ± 0.098
TATTATCA | 0.119 ± 0.11
CAATGACG | 0.0903 ± 0.026
AGGCCTTA | -0.101 ± 0.098
ATGTAAGC | -0.0351 ± 0.048
TCTAATCA | -0.0644 ± 0.02
CATGCTTA | 0.0523 ± 0.089
CTACGTAG | -0.146 ± 0.037
AAGCGTCT | -0.0765 ± 0.076
GGATTTTA | -0.15 ± 0.02
AAATCCTG | -0.069 ± 0.025
CACCGTAC | 0.224 ± 0.0088
CGGAACTC | -0.14 ± 0.02
ACTATCAA | 0.0759 ± 0.064
CCAGCCGA | 0.0561 ± 0.0056
ACAAGCGG | -0.0757 ± 0.038
ATGAGAAC | -0.0696 ± 0.046
ATCATGAC | -0.0392 ± 0.062
AATAGACC | -0.3328 ± 0.0021
ACCGTAAT | -0.24 ± 0.036
GATGTCAC | 0.304 ± 0.0034
AAGATCTT | -0.056 ± 0.015
CGGCGTCA | 0.219 ± 0.03
CTTTTTAA | -0.0553 ± 0.088

Sequence | PBM E-score of 8-mer
CTCTGCAG | -0.079 ± 0.017
CAACTATG | -0.00808 ± 0.0084
CGATTTCA | 0.0761 ± 0.02
CAGGACTA | -0.14 ± 0.02
CCCTTGAC | -0.0492 ± 0.044
CTCGTTTA | -0.262 ± 0.018
CGTTTCCA | -0.0174 ± 0.099
TAAGCGGA | -0.021 ± 0.11
CGTTAGCC | -0.0289 ± 0.004
CAGAACTA | -0.274 ± 0.028
CCCAACCC | -0.22 ± 0.05
ACGCCACT | 0.255 ± 0.022
ATCCAATA | -0.193 ± 0.025
AGCTACCG | -0.0389 ± 0.0068
AGTGTACG | 0.061 ± 0.021
CCGTTCTC | 0.0823 ± 0.076
AAATAGGA | -0.294 ± 0.053
AACTGCTG | 0.0905 ± 0.049
AGAGGGTA | -0.108 ± 0.023
CGCAGCCG | 0.00728 ± 0.07
CACTGACG | 0.217 ± 0.0037
GATAATTA | 0.188 ± 0.055
CGCTCAAA | -0.11 ± 0.051
CCCCGGAG | -0.271 ± 0.012
GTCACAAA | 0.118 ± 0.066

Sequence | PBM E-score of 8-mer
AATTCTCT | -0.257 ± 0.028
CAGTTTGA | 0.00953 ± 0.039
GCCGCTCC | -0.126 ± 0.16
ACACCTGT | 0.472 ± 0.00061
CGCTGCAA | -0.0364 ± 0.051
AAGGCGCT | 0.276 ± 0.02
TATAAACA | 0.0334 ± 0.0092
CGCTGACG | 0.0787 ± 0.071
TATGTGCA | -0.00413 ± 0.051
ACGAAACA | 0.00608 ± 0.065
GTCTCCGA | -0.174 ± 0.018
ACTGGCCA | 0.0259 ± 0.067
AAATTAAA | -0.276 ± 0.056
AATCTGCC | -0.117 ± 0.045
GTCTGCCA | -0.0444 ± 0.023
GTACCCTA | -0.0403 ± 0.012
AACGTCTT | -0.0896 ± 0.0054
GCATCAGA | -0.356 ± 0.029
CGTTTAAC | 0.0371 ± 0.016
